The IC50 comes from the fitted curve, where viability falls to half of the control; fits outside the tested doses are given as limits. For AUC the same curve is integrated over the 256-fold range of doses and scaled to a fraction: 1 means no effect, lower means more sensitive. For some assays here: The top dose, if marked as inferred, was calculated from the reported fits.
Experiments:
Experiment in all cases: Viability of human cancer cell lines after 72 h of drug (GDSC screen)
CI-1040 = compound: O=C(NOCC1CC1)c1ccc(F)c(F)c1Nc1ccc(I)cc1Cl [CI-1040]; settings: top dose 10 µM; top dose inferred
Method: (§1)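 Human cancer cell lines in 384-well plates, medium with 10% serum, drug for 72 h over a 256-fold dose range (nine 2-fold or five 4-fold steps up to the top dose). Adherent lines were fixed and stained with the nucleic acid dye Syto60, suspension lines read with resazurin; signal relative to control wells, capped at 0 and 100%. One two-parameter sigmoid per drug and line, fitted in a mixed model over all curves with the slope shared within a line.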

ZG-10 = compound: CN(C)C/C=C/C(=O)Nc1ccc(C(=O)Nc2cccc(Nc3nccc(-c4cccnc4)n3)c2)cc1 [ZG-10]; settings: top dose 10 µM; top dose inferred
Method: as §1

Temozolomide = compound: Cn1nnc2c(C(N)=O)ncn2c1=O [Temozolomide]; settings: top dose 30 µM
Method: as §1

Tubastatin A = compound: CN1CCc2c(c3ccccc3n2Cc2ccc(C(=O)NO)cc2)C1 [Tubastatin A]; settings: top dose 20 µM
Method: as §1

XL-880 = compound: COc1cc2c(Oc3ccc(NC(=O)C4(C(=O)Nc5ccc(F)cc5)CC4)cc3F)ccnc2cc1OCCCN1CCOCC1 [XL-880]; settings: top dose 5.12 µM; top dose inferred
Method: as §1

Cell Line	AUC (CI-1040)	IC50 (CI-1040) [µM]	AUC (ZG-10)	IC50 (ZG-10) [nM]	AUC (Temozolomide)	IC50 (Temozolomide) [µM]	AUC (Tubastatin A)	IC50 (Tubastatin A) [µM]	AUC (XL-880)	IC50 (XL-880) [nM]
VMRC-LCD (lung adenocarcinoma, adherent)	0.936	> 10	0.714	2230	0.987	> 30	–	–	–	–
ESO26 (oesophagus, adherent)	0.952	> 10	0.686	2000	0.987	> 30	0.971	> 20	0.661	872
JHOS-3 (ovary, adherent)	0.834	9.18	0.807	6910	0.981	> 30	0.981	> 20	0.718	1600
TE-4 (oesophagus, adherent)	0.891	> 10	0.615	1290	0.971	> 30	0.984	> 20	0.845	3680
EMC-BAC-2 (lung adenocarcinoma, adherent)	0.849	9.71	0.58	1080	0.97	> 30	0.936	> 20	0.61	679
ZR-75-30 (breast, adherent)	0.924	> 10	0.837	> 10000	0.981	> 30	–	–	–	–
OV-56 (ovary, adherent)	0.833	6.07	0.845	6790	0.988	> 30	0.983	> 20	0.815	2660
SK-GT-4 (oesophagus, adherent)	0.626	1.51	0.856	> 10000	0.966	> 30	0.965	> 20	0.637	839
CADO-ES1 (Ewing sarcoma, suspension)	0.966	> 10	0.967	> 10000	0.985	> 30	0.894	> 20	0.459	247
SNU-C5 (large intestine, adherent)	0.812	6.01	0.756	3740	0.984	> 30	0.986	> 20	0.73	1560
ESO51 (oesophagus, semi-adherent)	0.795	6.95	0.93	> 10000	0.968	> 30	0.867	> 20	0.107	< 20
Jurkat (T-cell leukaemia, suspension)	0.957	> 10	0.632	1340	0.982	> 30	–	–	–	–
SNU-81 (large intestine, adherent)	0.404	0.311	0.636	1690	0.962	> 30	0.972	> 20	0.874	> 5120
DIFI (large intestine, adherent)	0.798	4.99	0.79	4670	0.986	> 30	–	–	–	–
DOV13 (ovary, adherent)	0.794	5.41	0.613	1340	0.979	> 30	0.969	> 20	0.748	1880
